# ChEMBL document CHEMBL4888484, “Replenishing the malaria drug discovery pipeline: Screening and hit evaluation of the MMV Hit Generation Library 1 (HGL1) against asexual blood stage Plasmodium falciparum ,using a nano luciferase reporter read-out” (2022)
# The whole screen tested about 150,000 compounds, of which about 540 (0.36%) showed an effect of 50% or more. Some of the results follow.
# System: Plasmodium falciparum
# Test: Primary screen in NF54 nanoGlo assay, in single point, at 2uM, 72h; a lower Z score goes with more inhibition
# Type: functional, Erythrocyte
# Conditions: timepoint 72 hour
SMILES,% Inhibition,Z score
Cn1c2c(c(=O)n(C)c1=O)Cc1ccccc1N2,8%,-1.29
COc1cn(CC(=O)Nc2cccnc2)c(CO)cc1=O,32%,-3.57
Cc1cc2nc(C(=O)N3CCC[C@H]3c3ccc(CN(C)C)cc3)cc(C)n2n1,-2%,0.33
O=C(Cn1ccc(C(F)(F)F)n1)N1Cc2cccnc2C1,-5%,0.68
CC(=O)c1ccc(F)c(-c2ccc(C(=O)N(C)C[C@H]3COCCO3)cc2)c1,-17%,1.71
O=C1CN(C[C@@H](O)CN2C(=O)c3ccccc3C2=O)CCN1,-5%,1.02
COCCN1CCC2(CC1)C[C@@H](c1ccccc1)C(=O)N(C1CC1)C2,-12%,1.13
N[C@@H](Cc1ccccc1)C(O)(c1ccccc1)c1ccccc1,-9%,1.39
Cc1ccc(CNC(=O)Nc2ccccc2N2CCCC2)cc1,-5%,0.46
CCCc1nc(N2CCCN(C(=O)COCc3ccccc3)CC2)c2c(-c3ccccc3)noc2n1,-4%,0.54
COc1ccc(OCc2cc(C(=O)N[C@H]3CCCNC3=O)n[nH]2)c(Cl)c1,-6%,1.08
Cc1ccc(NC(=O)c2cn3c(n2)CC[C@H](c2ccccc2C)C3)cc1,5%,-0.85
O=C(Cc1c[nH]c(=O)[nH]c1=O)N1CC[C@@]2(CCCN(CC3CCC3)C2=O)C1,-21%,2.24
Cc1cc(NC(=O)CCOc2cc(C)c(C)nn2)no1,-19%,1.74
Cc1cc(C#N)ccc1-c1cccc(C(=O)N2CCNC(=O)[C@@H]2CCO)c1,-9%,0.79
CC1(C)OB(C2CCN(C(=O)OCC(F)(F)F)CC2)OC1(C)C,3%,-0.41
Cc1c(C(=O)N[C@H]2CCCN(c3ccccc3F)C2)nnn1C(C)C,-1%,0.16
O=C(c1cccc2cnccc12)N1CC[C@H](O)[C@@H](O)C1,5%,-0.59
Cc1cnc(C2CC2)n1CCNC(=O)c1ccccn1,-14%,2.29
Cc1nc2cc(C(=O)OCc3cccc(N(C)C)c3)cnc2[nH]1,-11%,1.42
CC(C)[C@H](C)N(CCS(=O)(=O)c1ccc(Cl)cc1)C1CC1,-13%,1.27
C[C@H]1CN(C(=O)CN(C)c2cnccn2)CC(C)(C)O1,-11%,1.92

SMILES,% Inhibition,Z score
CN(Cc1ccc(F)cc1Cl)C(=O)[C@@]1(C)CCNC1,-2%,0.3
Cc1ncnc(N2CCN(C3CCN(C(C)C)CC3)[C@@H](CCO)C2)c1C,7%,-1.02
COc1ccc(CNC(=O)Cn2c3ccccc3c3cn[nH]c(=O)c32)cc1,-10%,1.95
CC(C)(C)c1cc(NC(=O)c2cnc(OC3CCOCC3)c(Cl)c2)on1,3%,-0.62
CCOC(=O)c1nn(CCC(C)C)c2c1CN(C(=O)c1cc(C)[nH]n1)CC2,-12%,1.6
O=C1CN(C(=O)c2cc(O)ccc2Cl)CN1CC(F)(F)F,4%,-0.43
CCCCC(NC(=O)CC(c1nccn1C)C(F)(F)F)C(=O)O (configuration not stated),-14%,2.6
O=C(O)CCCC(=O)Nc1ccc(Br)cc1Br,-12%,1.63
Cc1cccc2c(-c3ncn(CC(=O)O)n3)c[nH]c12,-6%,1.27
c1ccc(-c2nnc[nH]2)c(OCCO[C@@H]2CCCCO2)c1,-1%,0.14
CN1C(=O)C[C@H](C(=O)N2CCc3c(O)cccc3C2)[C@H]1c1nccn1C,-5%,0.79
CC(C)CN1CC2(CCN(c3nccc(N4CCC[C@H](O)C4)n3)CC2)CC1=O,-11%,2.15
CCn1ccc(=O)c(NC(=O)N[C@@H](C)CCC(C)C)c1,-14%,2.06
CCn1ccc(C(=O)N(C)CCc2noc(C(F)(F)F)n2)cc1=O,-8%,1.29
O=S(=O)(NC1CCCCCC1)c1ccc2c(c1)OCCO2,-7%,1.05
COCc1nc(C)c(C(=O)N2CC[C@](C)(O)C2)s1,-8%,1.14
CCCn1nnnc1CNc1cc(F)cc(Br)c1,-7%,1.36
CCOC(C)c1nc(CN2CCCC2c2nccn2C)cs1 (configuration not stated),-4%,0.61
Cn1ncc2c1CCCC2NC1C[C@@H]2CCCC[C@H]12 (some centres not stated),4%,-0.49
CC1(c2nsc(NC(=O)CC3CCC(F)(F)CC3)n2)CC1,-5%,1.05
Cc1noc([C@H](C)NC(=O)Nc2nc3c(s2)CCC3(C)C)n1,-8%,1.1
CCCc1noc(CCC(=O)N[C@@H](C)CC)n1,-1%,0.13

SMILES,% Inhibition,Z score
CCn1cc(C(=O)Nc2nnc([C@H](C)OC)s2)cn1,-4%,0.74
CC(NC(=O)Cc1cccc(N)c1)C1CCN(Cc2ccccc2)C1 (configuration not stated),5%,-0.97
c1cnc(-c2noc(C3CN(Cc4ccoc4)C3)n2)cn1,-9%,1.67
N#Cc1c([C@H]2CCOC2)cc(-c2ccc(Cl)cc2Cl)nc1N,-11%,1.09
CCc1nc(-c2nn(C)cc2Cl)n(CCO)n1,2%,-0.28
CC1(C)CCCN1S(=O)(=O)c1onc(C2CC2)c1Cl,-3%,0.41
COc1ccc(Cl)cc1[C@@H](O)CNC(=O)c1c(C2CCC2)cnn1C,20%,-2.35
Cc1csc(CNC(=O)N[C@H]2COC[C@@H]2O)c1,14%,-1.8
c1cnc(N2CCN(Cc3cc(-c4ccncc4)no3)CC2)nc1,-18%,1.95
O=C1CN(CCc2ccccc2)CCN1,-8%,1.47
CC[C@H](C)n1nnc2cc(S(=O)(=O)N(C)CC(=O)NCCC(C)C)ccc21,-13%,1.19
O=C(Nc1nc2ccc(F)cn2n1)c1ncccc1Br,-8%,1.01
CC(=O)NCc1csc(C2CCN(S(=O)(=O)c3cccc(F)c3)CC2)n1,1%,-0.1
O=S1(=O)CCN(OCc2ccc(Cl)cc2)CC1,33%,-1.45
COc1cc(C)c(-c2nc(CN(C)Cc3nccs3)c(C)o2)cc1C,-8%,1.18
CCn1cc(CNC(=O)c2cc(-c3cc(OC)ccc3OC)nc3ccccc23)cn1,-8%,1.02
CCN(CC)C(=O)CCc1ccnc(N(CC)CC)c1,-14%,1.51
Cc1ccc2c(C(=O)NC[C@]3(O)CCS(=O)(=O)C3)csc2c1,-1%,0.09
CCN(C)c1ccc(CNc2ccc3nnnn3n2)cc1F,-21%,3.31
Cc1ccc(C(=O)Nc2ccc3c(c2)cc(C(=O)NCCN2CCOCC2)n3Cc2cccc(F)c2)cc1,4%,-0.49
Cc1noc(C)c1S(=O)(=O)NC[C@@](O)(c1ccccc1)C1CC1,-2%,0.26
C#CCCC1(CCC(=O)N2CCCC[C@H](CCOC)C2)N=N1,-12%,1.64

SMILES,% Inhibition,Z score
CC1CN(C2CCN(S(=O)(=O)c3ccc(F)cc3)CC2)CC(C)O1 (configuration not stated),5%,-0.78
COc1ccc(NC(=O)[C@@H]2CC(=O)Nc3c(-c4ccccc4OC)cnn32)cc1Cl,-2%,0.22
CCCCn1ncnc1C1(c2ccccc2F)CC1,-12%,1.52
COc1cccc(CN2CC(n3cc(C(=O)N(C)C)nn3)C2)c1,-7%,1.38
Cc1ccc(S(=O)(=O)N(CC(=O)N[C@@H]2C[C@H]3CC[C@@H]2C3)c2cccc(Br)c2)cc1,-15%,2.16
O=C(Nc1ccccc1)c1ccc(Cn2c(C(F)(F)F)nc3ccccc32)cc1,-1%,0.18
O=S(=O)(C1COC1)N1CC(C2CC2)C1C1CC1 (configuration not stated),-2%,0.35
COc1ccc(CNC(=O)C(=O)NCc2cccnc2)cc1,6%,-0.8
CCCN1CCN(c2ncc3c(n2)CCN(Cc2ccccc2F)C3)CC1,2%,-0.33
CCOC(=O)Cn1nc(C)c(NC(=O)c2cnccn2)c1C,30%,-3.35
CC(C)c1nn(C)c2nc(-c3cccc(OCC(N)=O)c3)[nH]c12,-6%,0.53
COc1ccnc(CNC(=O)c2cccc(S(=O)(=O)N3CC(O)C3)c2)c1,-6%,0.8
Cn1cc(CNC(=O)[C@H]2CCC(=O)N(C3CCCCCC3)C2)cn1,-14%,1.97
O=C(c1cnc2ccc(F)cc2c1N1CCN(c2ccccn2)CC1)N1CCCC1,28%,-0.08
Cc1ccc(Cc2c(C)nn(-c3nc(C)c(C(=O)Nc4ccccc4F)s3)c2C)cc1,-20%,1.73
CC(C)[C@H](NC(=O)N1CCC(n2cc(C(N)=O)nn2)CC1)C1CC1,1%,-0.12
O=C(CN1C(=O)OC[C@@H]1c1ccccc1)N(Cc1nccs1)C1CC1,-1%,0.11
Cn1ccc2c(CN3CCN4CCNC(=O)[C@@H]4C3)cccc21,-18%,3.4
O=C(c1cnc2[nH]nnc2c1)N1CCC(F)(F)C1,-5%,0.73
Cc1nn([C@@H](C)C(=O)NC(C)C)cc1Br,2%,-0.23
